Residue numbers refer to the chain shown, from its start. The list shows a part of the results.

B1: CGAUCGA (DNA:RNA)
RNA: GGGAGACCGGAAUUCAGAUUGUCCCGAUCGAUUAAAUCCCGUCGUAGCCACCA
DNA 1: CAATCTGAATTCCGGTCTCCC
DNA 2: TGGTGGCTACGACGGGATT
B2: CUGAUGG (DNA:RNA)
RNA: B1 RNA with G26U, A27G, U28A, C29U, A31G
DNA 1: CAATCTGAATTCCGGTCTCCC
DNA 2: TGGTGGCTACGACGGGATT
B3: AUCGGGC (DNA:RNA)
RNA: B1 RNA with C25A, G26U, A27C, U28G, C29G, A31C
DNA 1: CAATCTGAATTCCGGTCTCCC
DNA 2: TGGTGGCTACGACGGGATT
B4: ACUCAGU (DNA:RNA)
RNA: B1 RNA with C25A, G26C, A27U, U28C, C29A, A31U
DNA 1: CAATCTGAATTCCGGTCTCCC
DNA 2: TGGTGGCTACGACGGGATT
B5: GUCACUC (DNA:RNA)
RNA: B1 RNA with C25G, G26U, A27C, U28A, G30U, A31C
DNA 1: CAATCTGAATTCCGGTCTCCC
DNA 2: TGGTGGCTACGACGGGATT
B6: CUCCUUA (DNA:RNA)
RNA: B1 RNA with G26U, A27C, U28C, C29U, G30U
DNA 1: CAATCTGAATTCCGGTCTCCC
DNA 2: TGGTGGCTACGACGGGATT
B7: GAGUUCG (DNA:RNA)
RNA: B1 RNA with C25G, G26A, A27G, C29U, G30C, A31G
DNA 1: CAATCTGAATTCCGGTCTCCC
DNA 2: TGGTGGCTACGACGGGATT
B8: CAUAUCG (DNA:RNA)
RNA: B1 RNA with G26A, A27U, U28A, C29U, G30C, A31G
DNA 1: CAATCTGAATTCCGGTCTCCC
DNA 2: TGGTGGCTACGACGGGATT
B9: UCACUUU (DNA:RNA)
RNA: B1 RNA with C25U, G26C, U28C, C29U, G30U, A31U
DNA 1: CAATCTGAATTCCGGTCTCCC
DNA 2: TGGTGGCTACGACGGGATT

The target of the experiment is T1, RBFOX1 RRM RbFoxmut (Fox-RRM*) (Homo sapiens, UniProt Q9NWB1 109-208, R118D;E147R;N151S;E152T).
T1 sequence: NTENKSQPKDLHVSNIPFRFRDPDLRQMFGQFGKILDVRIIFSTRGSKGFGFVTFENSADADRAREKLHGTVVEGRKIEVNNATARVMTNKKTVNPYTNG
The experiment is described as follows: EMSA; HiTS-Eq, 1 nM pool, 10 min; buffer printed only for the single-RNA assays: 10 mM Tris pH 7.5, 150 mM NaCl, 3.4 mM EDTA, 0.001% NP-40, 30 C. The settings on record: tags: His6 N-terminal (pET28a); label: 5' 32P. The gist of the method: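 Purified RbFox RRM (wild type or mutant) was equilibrated for 10 min in 50 µL with 1 nM of a 5′-radiolabelled pool of RNA with 7 randomized nucleotides, its flanks annealed to DNA oligonucleotides, across increasing protein concentrations. Free RNA was separated by 8% native PAGE, excised, reverse-transcribed, PCR-barcoded and sequenced on an Illumina HiSeq 2500. Relative association constants came from read-count changes of each variant against the control reaction, normalised to the cognate motif.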
Take B1: the binding signal was 0.0748 KA relative to UGCAUGU. Consider B2, for which the binding signal is 0.0847 KA relative to UGCAUGU. For B3, the binding signal is 0.0955 KA relative to UGCAUGU. For B4, the binding signal was 0.0787 KA relative to UGCAUGU. For the molecule B5, the binding signal was 0.0323 KA relative to UGCAUGU. With B6, the binding signal was 0.108 KA relative to UGCAUGU. Consider B7, for which the binding signal was 0.18 KA relative to UGCAUGU.

Take B8: the binding signal was 0.1 KA relative to UGCAUGU. For the molecule B9, the binding signal is 0.0759 KA relative to UGCAUGU.

Source of the values: publication PMC9911399, “Two distinct binding modes provide the RNA-binding protein RbFox with extraordinary sequence specificity”.
